# Data published in the supplement of paper PMC3334620.
# Over roughly 33,000 sequences, “E-score (-0.5 to 0.5)” has its median near -0.053; the highest 2% begin near 0.37. Some of the results follow.
# Target: Hap1 (UniProt P0CE41)
# Test: PBM E-score (8-mer binding enrichment) (E-score (-0.5 to 0.5)); higher = stronger / more preferred TF binding; most listed sequences are background and not binding sites
# Conditions: protein concentration: 200 nM; construct: GST-DNA-binding domain
# Outline: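 Full-length yeast transcription factors or their DNA-binding domains, GST-tagged and expressed with PURExpress, were applied at about 100-200 nM to universal all-10-mer Agilent arrays. These arrays had been made double-stranded by primer extension on fresh or once-stripped slides. Detection used fluorescent anti-GST, normalisation used masliner, and E-scores for ungapped eight-base words pooled with reverse complements came from the Universal PBM Analysis Suite.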
# Sequence of UniProt P0CE41 (P0CE41 whole entry): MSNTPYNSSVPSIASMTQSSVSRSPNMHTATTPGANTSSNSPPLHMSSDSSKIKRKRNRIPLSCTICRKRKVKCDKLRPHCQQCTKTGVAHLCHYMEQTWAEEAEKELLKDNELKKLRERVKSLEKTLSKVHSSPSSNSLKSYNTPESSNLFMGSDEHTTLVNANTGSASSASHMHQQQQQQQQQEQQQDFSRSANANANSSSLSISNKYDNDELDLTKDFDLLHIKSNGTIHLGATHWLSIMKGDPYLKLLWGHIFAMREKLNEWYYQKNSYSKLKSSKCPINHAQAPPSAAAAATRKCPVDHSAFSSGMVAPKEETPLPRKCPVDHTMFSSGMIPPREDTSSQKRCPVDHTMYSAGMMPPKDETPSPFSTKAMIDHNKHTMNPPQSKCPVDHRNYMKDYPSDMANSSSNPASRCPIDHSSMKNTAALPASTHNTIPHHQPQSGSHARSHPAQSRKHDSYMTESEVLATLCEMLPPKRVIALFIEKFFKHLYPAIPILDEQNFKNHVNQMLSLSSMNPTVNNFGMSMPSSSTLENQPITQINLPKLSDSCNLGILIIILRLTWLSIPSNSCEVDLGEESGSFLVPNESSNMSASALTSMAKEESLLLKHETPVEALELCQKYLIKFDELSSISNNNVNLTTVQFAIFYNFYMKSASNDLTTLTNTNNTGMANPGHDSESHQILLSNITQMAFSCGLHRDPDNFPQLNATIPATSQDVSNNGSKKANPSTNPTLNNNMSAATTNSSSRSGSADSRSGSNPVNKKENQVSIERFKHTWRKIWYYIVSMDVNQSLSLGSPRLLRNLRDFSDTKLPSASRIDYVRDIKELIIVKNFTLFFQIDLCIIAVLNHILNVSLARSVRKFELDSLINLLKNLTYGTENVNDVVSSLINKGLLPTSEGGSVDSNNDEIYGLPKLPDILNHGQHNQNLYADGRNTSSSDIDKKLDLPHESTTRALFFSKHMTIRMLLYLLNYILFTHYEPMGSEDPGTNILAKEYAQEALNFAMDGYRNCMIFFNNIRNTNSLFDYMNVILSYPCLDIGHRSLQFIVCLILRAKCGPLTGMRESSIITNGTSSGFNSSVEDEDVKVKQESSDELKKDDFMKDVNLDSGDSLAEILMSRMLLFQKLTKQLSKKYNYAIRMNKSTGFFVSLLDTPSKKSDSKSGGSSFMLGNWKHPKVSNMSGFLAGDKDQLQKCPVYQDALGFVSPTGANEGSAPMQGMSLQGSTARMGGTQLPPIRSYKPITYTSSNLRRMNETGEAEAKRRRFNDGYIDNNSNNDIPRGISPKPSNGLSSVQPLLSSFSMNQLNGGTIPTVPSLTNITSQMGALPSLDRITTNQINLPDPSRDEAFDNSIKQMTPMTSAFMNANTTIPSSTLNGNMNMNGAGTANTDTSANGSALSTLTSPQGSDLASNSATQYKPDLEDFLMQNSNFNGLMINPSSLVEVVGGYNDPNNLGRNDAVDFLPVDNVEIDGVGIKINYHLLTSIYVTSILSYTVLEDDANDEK
row,Sequence,PBM E-score
1,AATGATCA,-0.179
2,GCATTCGC,-0.0182
3,CTACTTTA,-0.135
4,CTCGTGTC,-0.169
5,AGCCAGCA,-0.268
6,TGAGTCAA,-0.187
7,AACGGTAC,0.143
8,GAATACAA,0.0477
9,AGCGAAAT,0.108
10,GCGAAAGA,-0.0968
11,GACAAAAA,0.0716
12,CGTTGCGC,0.0555
13,ATTGGCTC,-0.126
14,ATCGGGGG,0.349
15,CGAAGGTC,0.0358
16,ACGCCCTC,-0.0435
17,ATACTTGG,-0.0801
18,GGGGAGTA,0.00322
19,AATGGGTG,-0.0614
20,ATCTATGG,-0.0553
21,GTGTCAAA,-0.0351
22,AAAGGCCG,0.363
23,ACGAGACA,-0.0645
24,ACTGTTCT,-0.143
25,ATCAGTCG,-0.0278

row,Sequence,PBM E-score
1,CATTAACC,0.0537
2,CCTACGTC,-0.0359
3,ATGAATTA,-0.159
4,AAAACCAA,-0.0285
5,ATTCACTC,-0.183
6,CATTCCCG,0.265
7,ACATGTCC,0.212
8,AAAAGCTT,0.0731
9,CAGTACAA,-0.0799
10,GTACGGGA,0.0238
11,AATCTCAC,-0.189
12,CCATTGGG,-0.272
13,GGCAGTAC,-0.0918
14,ATTTCAAG,-0.234
15,AAGAGAGA,-0.37
16,GCCGGTAC,0.293
17,GTATACAA,-0.0407
18,GCGCATCC,0.108
19,AATTTAAG,-0.164
20,AATTCCAG,0.134
21,CATCCTCA,-0.154
22,CAGTGATA,-0.0411
23,AAATGCCC,-0.12
24,ACCTTCCG,0.203
25,CTATTAGC,0.0383

row,Sequence,PBM E-score
1,ACGATTTG,-0.182
2,AACTGGGT,-0.0515
3,AATTTTAA,-0.0253
4,GGTTCGCA,-0.0395
5,CTGGCTTA,-0.171
6,CTGTACCC,0.08
7,GGTAAAGA,0.00264
8,AATGAGTA,0.19
9,ATAGCCAA,-0.0355
10,GCGGTGCA,-0.137
11,ATTAAATG,-0.00564
12,CGTCTGAA,-0.284
13,AATGGCCT,0.126
14,GGATGGAA,-0.0393
15,ATCAGCAG,-0.0294
16,ACAGCGTC,0.0618
17,AGGAGCCT,-0.239
18,CACTGGAG,-0.25
19,ACATCCGG,0.427
20,GCTTGGGA,-0.149
21,CGGACGCC,0.278
22,CATTTTCA,0.0219
23,ACACTCCC,-0.0304
24,CAGGAATA,-0.0925
25,GGTCCGTA,0.329

row,Sequence,PBM E-score
1,CCAAGTTA,-0.153
2,TTCCGAAA,0.363
3,ATTTAATC,0.153
4,CGGACCTA,0.425
5,GGAATAAA,0.154
6,GGGTCCAA,0.15
7,ATCATAAA,-0.13
8,TAAGTACA,-0.0628
9,CTTAATTA,-0.0417
10,CAGACTAC,-0.287
11,CAACCTTA,-0.223
12,ATAGACTC,-0.252
13,GAGTAGCA,0.0528
14,CAAGCCAA,-0.126
15,AGTACTGG,-0.129
16,ACATCGTA,0.114
17,ATTAAAGA,-0.0953
18,TCGTTCCA,-0.28
19,ATGTTTGC,0.031
20,ACATACGA,-0.0295
21,TCCGTGCA,0.241
22,GTGATGGA,-0.0732
23,ACACAGCG,-0.0524
24,AGGCCTGG,-0.246
25,TAGTCCAA,-0.206

row,Sequence,PBM E-score
1,CGTTCCAC,-0.0202
2,CGCGTCGA,0.147
3,ACAGCACG,0.184
4,AAAGGCAC,0.0891
5,CTAAAACC,0.291
6,CGGCCTAG,0.0646
7,ACGTACGT,-0.416
8,ACTACTCA,-0.0975
9,ACCGAGCG,0.384
10,ATCATTTC,0.0792
11,ATACAACG,0.102
12,AGTACAAG,-0.0771
13,AACACCAA,-0.314
14,GATTGCCC,0.0173
15,CGTTTGTC,-0.0136
16,CTAACCAC,-0.141
17,ACTGCTTC,0.00237
18,AGGACTAG,-0.127
19,GATGCACC,0.0309
20,CGGGGGCC,0.246
21,CACTCTGC,-0.139
22,AGACTGAT,-0.159
23,GGTCGGTA,0.166
24,CGTCAAGC,-0.0445
25,GTCCGTGA,0.303

row,Sequence,PBM E-score
1,AATGTTCA,-0.0359
2,CAAGAAGG,-0.281
3,GTGGACCA,-0.0994
4,CGTCGCGA,0.108
5,AACATGAC,-0.182
6,ACCTGGCT,-0.152
7,GAGTACGA,0.0941
8,GCCATGGA,-0.175
9,TCGGCTCA,0.184
10,GCAGTATA,0.196
11,AGTCCATC,-0.027
12,TATCGGAA,0.409
13,GTCGCTTA,0.197
14,GTGCCCTA,-0.202
15,AATCCCAG,0.0195
16,CTAGCGAC,-0.051
17,ATTTTATG,0.0797
18,CTACGTGC,-0.232
19,CCAGTACG,-0.222
20,GCAGAAGA,-0.17
21,AGACATAA,-0.0377
22,CCGTATAG,-0.0396
23,GTCTTTAA,-0.163
24,ACATAGCA,-0.201
25,CTATTTAA,0.117

row,Sequence,PBM E-score
1,ACTGCTCG,0.166
2,TAGGAATA,-0.172
3,ATCGCGGG,0.161
4,AGTCTGAG,-0.287
5,AGTTAAGG,-0.0377
6,GCGGGGAA,0.167
7,CTGCCAAG,-0.328
8,AGAAAAAG,-0.0187
9,CCTTCCCG,-0.0195
10,GAAGGCCC,0.0538
11,AGTCAGGA,-0.0121
12,AGGGAAGC,-0.0509
13,TCGAGAAA,-0.271
14,CCGAATGC,0.34
15,TCCTAGCA,-0.232
16,TTCAAGAA,0.00694
17,GGTTGTAA,-0.0507
18,CGGGCCGA,0.379
19,TCACCCGA,0.339
20,AGAGCAAT,-0.106
21,AAGAGCGG,0.088
22,CACCTTTC,-0.14
23,GACATTGC,0.0215
24,ATATTTAA,-0.105
25,ATGGTCCC,-0.131

row,Sequence,PBM E-score
1,CGGTACTC,0.0806
2,GCATAAAC,-0.0213
3,CACTAAGA,-0.047
4,CGGGCCAA,0.305
5,ATCCTGTC,0.0425
6,ATAGCTCA,-0.0918
7,AACATAGT,0.0275
8,AGCTGATA,-0.181
9,AAAAAGAC,-0.156
10,TCAGACGA,-0.201
11,CTAAGTAC,-0.0359
12,CACATCAC,-0.0631
13,AAGAGGAC,-0.23
14,CGGTGTCC,0.271
15,ACTTTTTA,-0.0787
16,AAGATAAC,0.0537
17,TGCCCTAA,-0.142
18,ACGTAGCT,-0.241
19,GCAGCGCC,0.0452
20,ATCGTAAA,-0.127
21,GGCGTGTA,-0.0887
22,CTGGGTGA,-0.109
23,GCAACGCA,-0.0158
24,CGGTAAAC,0.231
25,AAGGTGGA,0.0544

row,Sequence,PBM E-score
1,AATGGCGC,0.0448
2,ATCCTGAA,-0.0643
3,AGACATCG,-0.0272
4,CGATTACA,-0.0481
5,ATGCCAAA,-0.313
6,CACAGCAA,-0.0196
7,ACTGCTAT,-0.0795
8,CGACGTAA,-0.00721
9,CGACTCAA,0.077
10,GTCCCCGA,0.269
11,ACCGGTAT,0.424
12,GCGCAAGC,-0.249
13,ACGCTTAA,-0.206
14,ACACCAGC,-0.188
15,TAGACTCA,-0.0382
16,ACTCGGTC,0.301
17,TACCATCA,-0.403
18,CGCTTTGA,0.0268
19,AGGGGACC,-0.133
